Test results taken from patent USRE44962E1, “Genetically engineered plant cells and plants exhibiting resistance to glutamine synthetase inhibitors, DNA fragments and recombinants for use in the production of said cells and plants” (Bayer Cropscience N.V., priority 1986, dated 2014).

Tested on: Escherichia coli
Assay: Growth of E. coli transformant on minimal medium plates containing PPT
Conditions: minimal medium plates containing 300 μg/ml PPT

CP(=O)(O)CCC(N)C(=O)O (stereo not shown) [PPT, phosphinothricin]
growth of transformant (pJS1) on PPT-containing medium: grew
